Results: PMC6919601, “Identification of Plasmodium dipeptidyl aminopeptidase allosteric inhibitors by high throughput screening” (PLoS ONE, 2019)
About 230 (0.21%) of roughly 110,000 compounds showed an effect of 50% or more. The list shows a part of the results.

What follows are compounds tested against DPAP1 (Plasmodium falciparum, UniProt Q8IIJ9) (assay: primary screen, percent inhibition; read by cleavage of a fluorogenic dipeptide substrate; higher = more effect of the substance).
Parameters: species or system P. falciparum D10 trophozoite lysates; single well
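Further: 30 min substrate incubation versus DMSO and 10 µM JCP410 controls.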

Chain of DPAP1 (Q8IIJ9 whole entry, looked up): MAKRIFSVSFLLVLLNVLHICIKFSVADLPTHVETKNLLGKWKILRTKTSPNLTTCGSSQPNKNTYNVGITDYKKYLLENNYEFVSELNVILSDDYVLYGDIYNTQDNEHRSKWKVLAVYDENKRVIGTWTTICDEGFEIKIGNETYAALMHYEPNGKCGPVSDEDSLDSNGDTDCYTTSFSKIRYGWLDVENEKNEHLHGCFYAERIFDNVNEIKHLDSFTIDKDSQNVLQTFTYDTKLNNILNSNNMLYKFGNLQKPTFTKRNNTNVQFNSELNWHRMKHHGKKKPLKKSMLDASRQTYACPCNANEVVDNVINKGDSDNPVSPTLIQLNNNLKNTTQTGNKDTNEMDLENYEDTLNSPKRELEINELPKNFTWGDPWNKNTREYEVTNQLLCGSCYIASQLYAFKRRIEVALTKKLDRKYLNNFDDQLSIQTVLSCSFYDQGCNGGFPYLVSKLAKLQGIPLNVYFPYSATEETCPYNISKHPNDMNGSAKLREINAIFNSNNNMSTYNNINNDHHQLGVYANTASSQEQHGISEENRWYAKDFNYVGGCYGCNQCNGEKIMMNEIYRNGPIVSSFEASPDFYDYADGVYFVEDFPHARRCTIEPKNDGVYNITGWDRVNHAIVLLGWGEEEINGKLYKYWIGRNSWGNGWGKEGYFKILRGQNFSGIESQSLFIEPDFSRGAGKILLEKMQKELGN

| SMILES | % Inhibition @ 10 uM [%] |
| --- | --- |
| Cc1cccc(-n2cnc3cc(C(=O)NCc4ccc(F)cc4)ccc32)c1 | -0.256 |
| COc1ccc2oc3cc(C)nc(-c4ccccc4)c3c2c1 | -2.99 |
| CN(Cc1cnn(-c2ccccc2)c1)S(=O)(=O)c1ccc(-c2cc(C(F)(F)F)no2)s1 | 1.05 |
| CCC1CCCCN1C(=O)c1cc(Cl)ccc1NC(=O)c1ccco1 (stereo not shown) | -3.49 |
| CC(C)C[C@H](NC(=O)OCc1ccccc1)C(=O)N[C@@H](Cc1ccccc1)C(=O)C[N+](=O)[O-] | 0.744 |
| CC(NC(=O)C1CCCN(S(=O)(=O)N2CCCCC2)C1)C12CC3CC(CC(C3)C1)C2 (stereo not shown) | 0.0525 |
| CC1=C(C(=O)N2C(C)CCCC2C)C2(CCC(C)CC2)OC1=O (stereo not shown) | 1.55 |
| Cc1nccn1CCCNC(=O)c1nc(-c2ccc3c(c2)OCO3)no1 | 2.77 |
| CN(Cc1ccccc1)C(=O)c1cc(S(=O)(=O)N2CCCC2)cn1C | 3.36 |
| c1ccc(-c2csc(Cc3c[nH]c4ccccc34)n2)cc1 | 0.627 |
| COc1cc(OC)c(OC)cc1/C=C/C(=O)c1cc2cccc(OC)c2oc1=O | 0.775 |
| CCCOc1ccc(C2C(=O)N(C3CCC(C)CC3)CC(=O)N2Cc2ccco2)cc1OC (stereo not shown) | -2.26 |
| O=S(=O)(NCCc1ccccc1)c1cc(Cl)ccc1Cl | -0.856 |
| N=C(NOS(=O)(=O)c1ccc(Cl)cc1)c1ccncc1 | 7.86 |
| Cc1cccc2c(C(=O)N3CCOCC3)cc(-c3ccccc3)nc12 | 1.73 |
| Cc1onc(-c2ccccc2Cl)c1C(=O)Nc1ccccc1C(N)=O | 4.84 |
| COc1ccc(OC)c(NC(=O)Cc2ccc(Cl)cc2)c1 | -2.19 |
| CCOc1ccccc1NC(=O)C1=C(C)NC(=O)NC1c1ccc(C)cc1 (stereo not shown) | -0.69 |
| CCCCCn1c(=O)c(C(=O)Nc2ccc(C)cn2)c(O)c2ccccc21 | 4.09 |
| CCOC(=O)c1sc2ncn(CC(=O)NCCCOC)c(=O)c2c1C | -2.87 |
| O=C(NCCc1ccccc1)C1CCN(Cc2cnn(-c3ccccc3)c2-n2cccc2)CC1 | -3.08 |
| CC1=NN(c2ccccc2)C(=O)/C1=C\c1ccc(N2CCCCC2)cc1 | 3.83 |
| CCOC(=O)/C(C#N)=C/c1c(Oc2ccc(C(C)(C)C)cc2)nc2ccccn2c1=O | 1.19 |
| O=C(CSc1nc2sc3c(c2c(=O)n1-c1ccccc1)CCC3)NCC1CCCO1 (stereo not shown) | 2.01 |
| CCN1C(=O)N/C(=C\c2c(OC)ccc3ccccc23)C1=O | -0.25 |

| SMILES | % Inhibition @ 10 uM [%] |
| --- | --- |
| CC(=O)Nc1ccc(CN2CCCCCCC2)cc1 | -5.61 |
| COc1ccc(-c2cn3c(n2)sc2cc(C(=O)NCCc4ccc(OC)c(OC)c4)ccc23)cc1 | -0.0401 |
| CCn1c(C)c(C)c2cc(C(=O)NCc3ccc(C)o3)ccc21 | 7.74 |
| CS(=O)(=O)N(CC(=O)Nc1ccc(Br)cc1F)Cc1ccccc1 | -7.18 |
| O=C(C[n+]1cccc(CO)c1)Nc1nc2ccccc2s1 | -5.07 |
| O=C(/C=C/c1ccccc1)N1CCN(c2ccc(Cl)cc2)CC1 | 4.52 |
| O=C(CCCn1ccc2cc(S(=O)(=O)N3CCCC3)ccc21)NCCN1CCOCC1 | 5.44 |
| COc1ccccc1OCc1nc(C#N)c(NCc2ccc3c(c2)OCO3)o1 | -6.08 |
| COc1ccc2[nH]cc(CCNC(=O)c3ccco3)c2c1 | 4.93 |
| Cc1cc(NC(=O)c2cc(-c3ccc(F)cc3)no2)nn1CC(=O)N1CCOCC1 | 1.92 |
| Cc1ccc(-c2noc(CCC(=O)Nc3nc4ccccc4s3)n2)cc1 | -4.66 |
| CCS(=O)(=O)c1nc(S(=O)(=O)c2ccc(C)cc2)c(NCc2ccccc2)s1 | -0.522 |
| CCN(CC)S(=O)(=O)c1cc(C(=O)O)ccc1F | 1.13 |
| Cc1onc(-c2ccccc2Cl)c1C(=O)Nc1cc(=O)n(C)c(=O)n1C | -1.36 |
| Clc1ccccc1OCc1nn2c(Cn3cnc4ccccc43)nnc2s1 | 4.47 |
| COc1ccc(NC2C=CS(=O)(=O)C2)cc1 (stereo not shown) | -3.92 |
| NC(=O)c1ccccc1NC(=O)/C=C/C(=O)O | -4.08 |
| O=C1OC(c2cncc(Br)c2)=N/C1=C\c1cccc(Cl)c1Cl | 4.29 |
| O=C(Nc1cccnc1)c1cc(-c2ccc(Br)cc2)on1 | -4.79 |
| CCOC(=O)c1c(-c2ccccc2)oc2ccc(OCC(=O)N(CC)CC)cc12 | 1.16 |
| CCCCOc1ccc(/C=C(\C#N)c2nc(-c3ccc(OC)cc3OC)cs2)cc1 | 2.7 |
| CC(C)(C)CC(=O)Nc1ccc(C(N)=O)cc1 | 2.86 |
| CC(=O)c1ccc2c(c1)OCCOCCOCCOCCOCCO2 | -0.968 |
| O=C(NCCCN1CCC(Cc2ccccc2)CC1)c1cc2ccc3cccnc3c2[nH]1 | -1.79 |
